Experimental data: article PMC5096715
Results are given in words; binding and its absence hold for the method and conditions named. Some entries that bind do so weakly or less than the wild type.

Amino acid sequences for entries named in this document (tags omitted). A change or cut given only in a name is not applied to a line headed by its entry. Chains listed by the source or under a name are the forms on record and can include a tag or linker. Residues count along the entry.
wild-type C3d, recombinant (residues 996-1306 of human C3) (P01024, residues 996-1306): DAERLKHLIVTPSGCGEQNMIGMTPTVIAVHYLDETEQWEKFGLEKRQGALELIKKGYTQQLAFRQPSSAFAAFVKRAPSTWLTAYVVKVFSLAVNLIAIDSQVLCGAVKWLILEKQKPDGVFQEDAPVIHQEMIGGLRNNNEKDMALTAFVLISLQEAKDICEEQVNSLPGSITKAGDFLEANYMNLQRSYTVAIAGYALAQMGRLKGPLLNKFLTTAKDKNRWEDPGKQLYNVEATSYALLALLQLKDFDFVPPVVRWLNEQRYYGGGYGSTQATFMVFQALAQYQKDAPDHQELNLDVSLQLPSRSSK
C3d E1110A/D1115A (P01024, form named): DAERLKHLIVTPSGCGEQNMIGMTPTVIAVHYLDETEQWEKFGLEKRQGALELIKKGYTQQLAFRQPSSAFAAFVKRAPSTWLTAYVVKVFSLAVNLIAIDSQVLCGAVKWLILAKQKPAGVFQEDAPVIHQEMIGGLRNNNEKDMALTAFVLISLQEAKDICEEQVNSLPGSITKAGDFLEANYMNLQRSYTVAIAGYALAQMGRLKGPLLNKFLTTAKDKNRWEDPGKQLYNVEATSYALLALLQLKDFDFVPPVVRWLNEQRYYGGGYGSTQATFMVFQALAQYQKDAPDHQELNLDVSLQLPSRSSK
C3d K1105A (P01024, form named): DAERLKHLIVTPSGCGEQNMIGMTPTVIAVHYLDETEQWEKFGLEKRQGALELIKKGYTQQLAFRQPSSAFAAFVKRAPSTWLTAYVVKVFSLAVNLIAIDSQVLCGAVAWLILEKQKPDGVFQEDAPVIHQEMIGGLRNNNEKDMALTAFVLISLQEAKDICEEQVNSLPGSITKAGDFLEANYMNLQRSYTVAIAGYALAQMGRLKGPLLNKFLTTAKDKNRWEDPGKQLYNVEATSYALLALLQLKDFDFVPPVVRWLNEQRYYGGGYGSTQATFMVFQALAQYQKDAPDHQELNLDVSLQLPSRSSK
C3d P1114L (P01024, form named): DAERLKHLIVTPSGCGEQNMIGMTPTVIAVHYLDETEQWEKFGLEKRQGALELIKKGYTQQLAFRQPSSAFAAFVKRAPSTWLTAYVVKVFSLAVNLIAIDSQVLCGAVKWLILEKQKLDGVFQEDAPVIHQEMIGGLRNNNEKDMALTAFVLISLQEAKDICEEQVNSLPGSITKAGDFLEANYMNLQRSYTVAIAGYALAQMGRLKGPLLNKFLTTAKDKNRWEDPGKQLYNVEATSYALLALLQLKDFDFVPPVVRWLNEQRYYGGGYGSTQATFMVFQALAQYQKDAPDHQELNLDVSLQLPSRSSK
complement factor H-related protein 1 (CFHR1), recombinant wild-type (Q03591, residues 19-330): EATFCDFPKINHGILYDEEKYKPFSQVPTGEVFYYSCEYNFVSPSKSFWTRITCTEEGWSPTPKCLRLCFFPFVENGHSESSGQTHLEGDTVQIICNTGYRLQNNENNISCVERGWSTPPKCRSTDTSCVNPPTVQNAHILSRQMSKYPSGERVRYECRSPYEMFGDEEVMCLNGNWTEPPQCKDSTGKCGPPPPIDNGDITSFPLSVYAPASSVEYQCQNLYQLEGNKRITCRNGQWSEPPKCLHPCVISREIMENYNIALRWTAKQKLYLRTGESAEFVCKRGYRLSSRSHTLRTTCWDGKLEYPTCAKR
CFHR1 Mut1 (N216A/D218A) (Q03591, form named): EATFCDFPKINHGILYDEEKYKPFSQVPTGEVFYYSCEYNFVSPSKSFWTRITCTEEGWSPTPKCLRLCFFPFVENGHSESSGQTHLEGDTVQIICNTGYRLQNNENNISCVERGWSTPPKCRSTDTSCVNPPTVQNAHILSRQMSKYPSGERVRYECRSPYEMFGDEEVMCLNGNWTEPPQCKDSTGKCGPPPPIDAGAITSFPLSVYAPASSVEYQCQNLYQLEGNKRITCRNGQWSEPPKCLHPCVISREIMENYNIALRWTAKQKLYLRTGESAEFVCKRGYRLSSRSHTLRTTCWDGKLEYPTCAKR
CFHR1 Mut2 (Q238A/Y241A) (Q03591, form named): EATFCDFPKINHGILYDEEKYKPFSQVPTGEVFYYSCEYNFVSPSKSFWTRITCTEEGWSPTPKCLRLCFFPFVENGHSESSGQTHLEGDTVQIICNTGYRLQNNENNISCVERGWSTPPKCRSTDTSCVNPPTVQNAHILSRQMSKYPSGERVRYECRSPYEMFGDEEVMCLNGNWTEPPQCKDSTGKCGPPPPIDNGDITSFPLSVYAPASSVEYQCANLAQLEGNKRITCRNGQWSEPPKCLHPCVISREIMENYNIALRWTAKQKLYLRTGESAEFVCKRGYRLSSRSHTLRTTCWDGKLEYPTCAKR
CFHR1 Mut3 (Y52S/S54Y/Y57E) (Q03591, form named): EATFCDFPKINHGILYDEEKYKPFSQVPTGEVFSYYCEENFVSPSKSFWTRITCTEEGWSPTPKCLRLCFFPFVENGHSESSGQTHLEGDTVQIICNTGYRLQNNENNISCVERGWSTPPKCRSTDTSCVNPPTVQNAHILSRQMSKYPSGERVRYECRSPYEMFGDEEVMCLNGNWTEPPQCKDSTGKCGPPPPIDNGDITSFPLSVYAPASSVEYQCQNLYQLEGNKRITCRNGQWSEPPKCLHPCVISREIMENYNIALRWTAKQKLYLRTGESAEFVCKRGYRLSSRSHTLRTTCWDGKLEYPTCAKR

Assays:
[1] = target: wild-type C3d, recombinant (residues 996-1306 of human C3) (human) (UniProt P01024); assay: ELISA; plates coated overnight at 4°C with 14.1 pmols of wild-type or mutant C3d or 5.5 pmols of C3b in 50 mM sodium bicarbonate pH 8.8; blocked with 1% BSA; wild-type or mutant CFHR1 at 1.04-0.008 μM in DPBS, one hour, room temperature; detected with HRP anti-His6 and ABTS; OD405 normalised to wild-type CFHR1 at 1.04 μM; both purified
[2] = target: CFHR1 Mut3 (Y52S/S54Y/Y57E) (human) (UniProt Q03591); assay: SEC; preparative HiPrep 16/60 Sephacryl S200 column in DPBS pH 7.4; both purified
[3] = target: C3d E1110A/D1115A (human) (UniProt P01024); assay: ELISA; plates coated overnight at 4°C with 14.1 pmols of wild-type or mutant C3d or 5.5 pmols of C3b in 50 mM sodium bicarbonate pH 8.8; blocked with 1% BSA; wild-type or mutant CFHR1 at 1.04-0.008 μM in DPBS, one hour, room temperature; detected with HRP anti-His6 and ABTS; OD405 normalised to wild-type CFHR1 at 1.04 μM; both purified
C3d K1105A (human) = C3d K1105A (human) (UniProt P01024); assay: as above
C3d P1114L (human) = C3d P1114L (human) (UniProt P01024); assay: as above
[4] = target: complement component C3c, serum-derived (human) (UniProt P01024); assay: ELISA; plates coated overnight at 4°C with 18, 36 and 72 pmols of C3c in 50 mM sodium bicarbonate pH 8.8; blocked with 1% BSA; wild-type CFHR1 at 1.04-0.008 μM in DPBS, one hour, room temperature; HRP anti-His6 and ABTS; both purified
[5] = target: complement factor H-related protein 1 (CFHR1), recombinant wild-type (human) (UniProt Q03591); assay: pull-down; C3d (1.1 nmols) and CFHR1 (0.8 nmols) in DPBS with Heparin Sepharose 6 Fast Flow, 30 minutes, room temperature; each protein alone as control; eluted with DPBS plus 1M NaCl; SDS PAGE, Colloidal Blue stain; both purified

CFHR1 Mut1 (N216A/D218A) (from UniProt Q03591 19-330)
binding [1]: no binding (tested: 1.04 μM)

CFHR1 Mut2 (Q238A/Y241A) (from UniProt Q03591 19-330)
binding [1]: no binding (tested: 1.04 μM)

CFHR1 Mut3 (Y52S/S54Y/Y57E) (from UniProt Q03591 19-330)
binding [2]: no binding
binding [1]: no binding (tested: 1.04 μM)

complement factor H-related protein 1 (CFHR1), recombinant wild-type (from UniProt Q03591 19-330)
binding [1]: binds
binding [3]: no binding (tested: 1.04 μM)
binding (C3d K1105A (human)): no binding (tested: 1.04 μM)
binding (C3d P1114L (human)): no binding (tested: 1.04 μM)
binding [4]: no binding (tested: 0.008 μM -1.04 μM)

wild-type C3d, recombinant (residues 996-1306 of human C3) (from UniProt P01024 996-1306) (domain or fragment)
binding [5]: binds
